From patent US20210363269A1 (ALX ONCOLOGY, published 2021) come the findings set out here.

Test [1] deals with T1, NOD mouse SIRP-α D1 domain (mouse (NOD strain)).
T1 chain: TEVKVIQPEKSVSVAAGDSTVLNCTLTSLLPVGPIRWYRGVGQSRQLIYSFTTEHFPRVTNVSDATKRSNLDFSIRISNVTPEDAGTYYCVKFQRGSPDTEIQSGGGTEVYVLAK
As to the kind of experiment: SPR, captured scFv-Fc, 100 nM analyte. A general note: SPR reads the build-up and loss of mass on a sensor chip optically.

Test [2] has as its target T2, C57BL/6 mouse SIRP-α D1 domain (mouse (C57BL/6 strain), UniProt P97797 32-148).
T2 sequence: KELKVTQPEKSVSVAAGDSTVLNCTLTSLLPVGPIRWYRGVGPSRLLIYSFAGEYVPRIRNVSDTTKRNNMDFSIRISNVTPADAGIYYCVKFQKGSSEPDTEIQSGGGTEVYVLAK
The experiment in a line: SPR, captured scFv-Fc, 100 nM analyte.

For test [3], the target named is T3, mouse 129 SIRP-α D1 domain (mouse (129 strain), UniProt P97797 32-150).
T3 construct: also called m129
T3 chain: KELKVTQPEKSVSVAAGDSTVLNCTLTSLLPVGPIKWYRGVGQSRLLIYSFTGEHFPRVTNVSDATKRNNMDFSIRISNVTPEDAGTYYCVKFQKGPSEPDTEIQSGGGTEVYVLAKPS
As to the kind of experiment: SPR, captured scFv-Fc, 100 nM analyte.

The target in test [4] is T4, cynomolgus SIRP-α D1 domain (SEQ ID NO:11) (cynomolgus, UniProt Q5TFQ8 30-148 (human entry), limits assumed).
T4 construct: also called cyno1
T4 chain: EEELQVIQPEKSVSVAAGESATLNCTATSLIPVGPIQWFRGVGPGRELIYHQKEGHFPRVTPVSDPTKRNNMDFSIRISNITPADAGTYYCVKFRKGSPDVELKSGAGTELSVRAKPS
The experiment in a line: SPR, captured scFv-Fc, 100 nM analyte.

Test [5] has as its target T5, human SIRP-α v1 D1 domain (human, UniProt P78324 31-149).
T5 construct: also called human v1; human α v1
As to the kind of experiment: SPR, captured scFv-Fc, 100 nM analyte.

Test [6] has as its target T6, high affinity SIRP-α D1 variant CV1-3 (human).
T6 chain: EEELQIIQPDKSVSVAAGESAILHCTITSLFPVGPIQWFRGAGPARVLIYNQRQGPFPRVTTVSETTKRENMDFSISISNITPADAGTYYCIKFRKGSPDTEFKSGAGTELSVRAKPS
As to the kind of experiment: SPR, captured scFv-Fc, 100 nM analyte.

For test [7], the target named is T7, cynomolgus SIRP-α D1 domain (SEQ ID NO:12) (cynomolgus, UniProt Q5TFQ8 30-148 (human entry), limits assumed).
T7 construct: also called cyno2; Cyno2
T7 chain: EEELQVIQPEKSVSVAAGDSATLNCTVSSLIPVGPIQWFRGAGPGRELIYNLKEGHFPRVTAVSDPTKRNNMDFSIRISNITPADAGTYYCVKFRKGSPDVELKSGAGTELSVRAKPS
As to the kind of experiment: SPR, captured scFv-Fc, 100 nM analyte.

For test [8], the target named is T8, human SIRPγ isoform 1 (human, UniProt Q9P1W8 29-147).
T8 construct: also called sirpg; sirp-g
The experiment in a line: SPR, captured scFv-Fc, 100 nM analyte.

Test [9] deals with T9, human SIRPβ isoform 1 (human, UniProt O00241 30-148).
T9 construct: also called sirpb1; Sirpb1
As to the kind of experiment: SPR, captured scFv-Fc. The gist of the method: (§1)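 Pre-filtered culture media supplied the scFv-Fc antibody clones, which were captured by anti-human IgG Fc amine-coupled (about 4000 RU) to a GLC chip on a ProteOn XPR36. SIRP analytes were flowed in PBS pH 7.4 with 0.01% Tween-20 at 25° C. Interspot and buffer-blank responses were subtracted from the data, which were then fitted to a 1:1 Langmuir model. Dissociation rate constants (koff) were derived from this fitting.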

The target in test [10] is T10, human SIRP-α v2 D1 domain (human).
T10 construct: also called human v2; human α v2
The experiment in a line: SPR, captured scFv-Fc. The gist of the method: as §1

Test [11] addresses T9, human SIRPβ isoform 1. As to the kind of experiment: SPR, captured scFv-Fc, 100 nM analyte.
Test [12] concerns the target T10, human SIRP-α v2 D1 domain. As to the kind of experiment: SPR, captured scFv-Fc, 100 nM analyte.
Test [13] deals with T1, NOD mouse SIRP-α D1 domain. The experiment in a line: SPR, captured scFv-Fc. The gist of the method: as §1
The target in test [14] is T2, C57BL/6 mouse SIRP-α D1 domain. The experiment in a line: SPR, captured scFv-Fc. The gist of the method: as §1
Test [15] concerns the target T3, mouse 129 SIRP-α D1 domain. The experiment in a line: SPR, captured scFv-Fc. The gist of the method:
as §1

Test [16] addresses T6, high affinity SIRP-α D1 variant CV1-3. The experiment in a line: SPR, captured scFv-Fc. The gist of the method:
as §1

Test [17] addresses T8, human SIRPγ isoform 1. The experiment in a line: SPR, captured scFv-Fc. Put shortly: as §1

T8 sequence (Q9P1W8 29-147 limits assumed): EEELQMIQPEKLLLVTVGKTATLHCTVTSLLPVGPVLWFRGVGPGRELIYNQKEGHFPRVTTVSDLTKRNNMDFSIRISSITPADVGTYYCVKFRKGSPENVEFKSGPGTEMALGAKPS
T9 sequence (O00241 30-148 limits assumed): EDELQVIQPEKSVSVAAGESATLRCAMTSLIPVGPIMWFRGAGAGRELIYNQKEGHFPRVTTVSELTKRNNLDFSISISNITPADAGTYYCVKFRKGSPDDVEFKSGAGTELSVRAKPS
T5 sequence (P78324 31-149 limits assumed): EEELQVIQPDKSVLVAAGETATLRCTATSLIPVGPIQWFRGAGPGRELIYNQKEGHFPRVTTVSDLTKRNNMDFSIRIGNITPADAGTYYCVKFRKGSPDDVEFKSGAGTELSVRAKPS

B1: S1 scFv-Fc (scFv)
scFv: ALTQPASVSANPGETVEITCSGGGSNNAYGWFQQKSPGSAPLTVIYDNGKRPSDIPSRFSGSKSDSTGTLTITRVQAEDEAVYYCGSADNSGAGVFGAGTTLTVLGQSSRSSGGGGSSGGGGSMAAVTLDESGGGLQTPGGALSLVCKGSGFTFSSHAMNWVRQAPGKGLEWVAGISSDGRFTYYGAAVQGRATISRDNGQSTVRLQLNNLRAEDTATYYCTKNGGCGSGGDLDCIDAWGHGTEVIVSSSL[letters of human IgG1 Fc with C220S (EU numbers) and a few adjoining residues left out]
With B1, the koff in test [1] is 0.00789 s⁻¹; in test [2], 0.0017 s⁻¹; in test [3], 0.00212 s⁻¹; in [4], 0.0348 s⁻¹; in test [5], 0.00233 s⁻¹; in test [6], 0.00219 s⁻¹. Moreover, the koff in [7] came out at 0.00406 s⁻¹; with human SIRPγ isoform 1 [8] it was 0.00219 s⁻¹. The binding result (with human SIRPβ isoform 1 [9]; in [10]) was “no binding (tested: 100 nM)” throughout.

B2: S128 scFv-Fc (scFv)
scFv: ETVLTQSPATLSVSPGERATLSCRASQTVGSKLAWHQQKPGQAPRLLIYDASNRATGIPDRFSGSGSGTDFTLTISSLQTEDSAVYYCQQYYYWPPYRFGGGTKVEIKGQSSRSSGGGGSSGGGGSDVQLVESGGGVVRPGESLRLSCAASGFSFRSYAMNWVRQAPGEGLEWVSRIDSGGGGTDYADSVKGRFTISRDNSKNTLYLQMNSLRAEDTAVYYCAKQYDWNSFFDYWGLGAPVTVSSSL[letters of human IgG1 Fc with C220S (EU numbers) and a few adjoining residues left out]
notes: scFv-Fc, whole chain in the entry; Human framework
For B2, the koff turned out to be 0.00421 s⁻¹ in the test with human SIRPβ isoform 1 [11]; 0.0152 s⁻¹ in [4]; 0.00459 s⁻¹ in [5]; 0.00211 s⁻¹ in test [12]; 0.0147 s⁻¹ in [7]. For the same molecule, the binding result (in test [13]; in test [14]; in test [15]; in [16]; with human SIRPγ isoform 1 [17]) was “no binding (tested: 100 nM)” throughout.

The term koff denotes the first-order rate constant of dissociation.
